# Experimental data taken from paper PMC7819943, “Rice protein-binding microarrays: a tool to detect cis-acting elements near promoter regions in rice”.
# The list shows a part of the results.
# Target: T1, OsWOX13 (Oryza sativa, UniProt Q5QMM3 1-267)
# T1 sequence: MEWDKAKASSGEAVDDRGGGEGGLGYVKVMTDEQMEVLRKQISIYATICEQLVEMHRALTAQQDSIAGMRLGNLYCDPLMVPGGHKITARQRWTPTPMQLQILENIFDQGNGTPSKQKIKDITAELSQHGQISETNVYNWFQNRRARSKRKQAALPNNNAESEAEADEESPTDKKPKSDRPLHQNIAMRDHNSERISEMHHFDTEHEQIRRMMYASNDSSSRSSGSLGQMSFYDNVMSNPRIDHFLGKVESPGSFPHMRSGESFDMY
# Test: protein-binding microarray (RPBM); PBS, 2% BSA, 51.3 ng/ul salmon testes DNA, 50 uM zinc acetate, 200 nM TF, 25 C, 1 h; high values mean tight binding
# Settings: protein: recombinant; tags: N-terminal polyhistidine and DsRed monomer fusion (pET32a); label: CyDye5-dUTP incorporated in the synthesized complementary strand; 3' TTTTT single-stranded linker to array surface; dsDNA, one strand shown
# Procedure, shortened: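 An Axon 4000B scanner gave the binding signal as per-feature fluorescence intensity in arbitrary units. This followed washing of a custom Agilent array that had been incubated for 1 h at 25 °C with 200 nM protein in PBS, 2% BSA, salmon testes DNA and 50 µM zinc acetate. The proteins were transcription factors fused at the N-terminus to polyhistidine and DsRed, expressed in E. coli BL21-CodonPlus and purified on Ni–NTA.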
row,Sequence,binding signal
1,CACGCGTGTCATGCTCCGTTGATTGGCGTCCGCTTCTATTCGGAGTCACCTAGTGCAG,22200 fluorescence intensity (a.u.)
2,AGAGATTATTGAATATTGTTGCGATGACTTATAATCTTATCGGAGTCACCTAGTGCAG,5070 fluorescence intensity (a.u.)
3,AAAGTTAATCAAATTGACTAATTAGTGCTAGATATGTCCTCGGAGTCACCTAGTGCAG,60600 fluorescence intensity (a.u.)
4,CTCCCAATATAATTATTTTCTATTTTCACAAACTCAGATACGGAGTCACCTAGTGCAG,5940 fluorescence intensity (a.u.)
5,AATGTGGTGGTGGTGGTGGTGAACGGAGGAGGGAGGGAGCCGGAGTCACCTAGTGCAG,3760 fluorescence intensity (a.u.)
6,CGATGATTGTTAGTATACACTATATGTATGGTGTTTATCCCGGAGTCACCTAGTGCAG,40600 fluorescence intensity (a.u.)
7,TGGTCAATTACACTGGCTAATTAGCACGCTAGCTTAACACCGGAGTCACCTAGTGCAG,48600 fluorescence intensity (a.u.)
8,CTATAAATGCTGTGACTGATGATAAGTCCAGTGCATTCCACGGAGTCACCTAGTGCAG,6700 fluorescence intensity (a.u.)
9,GTGAAATTTAATGGGAGATAATTATGATCGATTGAGATGACGGAGTCACCTAGTGCAG,25900 fluorescence intensity (a.u.)
10,ATGATTTGCTCATGCTTTAGGAGGCGCGTTACATGGTGGGCGGAGTCACCTAGTGCAG,15800 fluorescence intensity (a.u.)
11,TATATAATCAATTTAATAGCCAATTCATATATTAGTTACCCGGAGTCACCTAGTGCAG,10800 fluorescence intensity (a.u.)
12,GATGGATTAATTAGGCTCAAAAGATTCATCTAACGGTTTTCGGAGTCACCTAGTGCAG,6970 fluorescence intensity (a.u.)
13,AATCCCATGATTAGTGCTGCATGATTCCATATAAACTTTTCGGAGTCACCTAGTGCAG,20000 fluorescence intensity (a.u.)
14,GGTCTGAAAATTATAAATTATCGCTAAAATTTATGTCGGGCGGAGTCACCTAGTGCAG,22500 fluorescence intensity (a.u.)
15,ACTATTAACTCTTGATTAAGGAACATGGTAAAATTTATACCGGAGTCACCTAGTGCAG,4290 fluorescence intensity (a.u.)
16,ACATTAACTAAATGGTGGAGGGCAGGGGTTCGTCTTTCTTCGGAGTCACCTAGTGCAG,8750 fluorescence intensity (a.u.)
17,GCTTAATTTTAATTTCAAACTGAACGCTTGAATACTCAACCGGAGTCACCTAGTGCAG,51100 fluorescence intensity (a.u.)
18,GCCAGTAATTACCACTGAGAGATACTCGCTCCTTGCGATTCGGAGTCACCTAGTGCAG,20900 fluorescence intensity (a.u.)
19,TTCTAATTAGTGTAAAACATGTGATGTGACCCCATCCAAACGGAGTCACCTAGTGCAG,16500 fluorescence intensity (a.u.)
20,CTTGCATGTGAATTGATTGTACCCATTGGATTTTGTTTTCCGGAGTCACCTAGTGCAG,5800 fluorescence intensity (a.u.)
21,GAGTAAATTAAGCAAGTGGCACCACCCTCCATTTCGCTCTCGGAGTCACCTAGTGCAG,5490 fluorescence intensity (a.u.)
22,GCTGTGCAAACACATAATTGGCAGACATAAAGGATATGACCGGAGTCACCTAGTGCAG,4700 fluorescence intensity (a.u.)
23,CTACAAATTTACTCTGACAATGTGTTTATAAAATGATTGCCGGAGTCACCTAGTGCAG,14400 fluorescence intensity (a.u.)
24,AGTTGATTTATAAGCCTAAATAAATAGGGCCTAAAATTGCCGGAGTCACCTAGTGCAG,37000 fluorescence intensity (a.u.)
25,ATGAATTGACTAAGATATTAAGCAGTATATAAACAACTAACGGAGTCACCTAGTGCAG,5440 fluorescence intensity (a.u.)
26,TTTAATTACCTCAGTTGGCTGCAAATTGAGAAGAACTTGTCGGAGTCACCTAGTGCAG,16800 fluorescence intensity (a.u.)
27,GCAAATTGAACCAAAATTGATAGTTGACTAGTTGAGGGAGCGGAGTCACCTAGTGCAG,38600 fluorescence intensity (a.u.)

row,Sequence,binding signal
1,GATAATTAGAGAGATTCTGAGAGGAGAGACTAACGGAAGCCGGAGTCACCTAGTGCAG,18900 fluorescence intensity (a.u.)
2,CTAAACTAAATAACTGGTAGCGTTTGCTTAGTTACGTATCCGGAGTCACCTAGTGCAG,17200 fluorescence intensity (a.u.)
3,TTATAGTGATTGCTGAGAATGTAAATAACATATTCAGCTACGGAGTCACCTAGTGCAG,18100 fluorescence intensity (a.u.)
4,ACGAAGTCATCACTGCTACCAATCAAAACCTACAAACAGCCGGAGTCACCTAGTGCAG,4780 fluorescence intensity (a.u.)
5,GAGATAAGAAATTATTATCATAATTTATGATGAACGGTTGCGGAGTCACCTAGTGCAG,7300 fluorescence intensity (a.u.)
6,CCCATGATTCCGGGACCAATCACAGCTCGACAGCATACTGCGGAGTCACCTAGTGCAG,9810 fluorescence intensity (a.u.)
7,GTCCATTATACCAAATTACCAACCGCACATAAATTATCCTCGGAGTCACCTAGTGCAG,4940 fluorescence intensity (a.u.)
8,AGGAGGCGGGGCGGGGCGGCGGCGGCGGCGGCGGCGCCCGCGGAGTCACCTAGTGCAG,5340 fluorescence intensity (a.u.)
9,CTAAGTAATTAAAGTTTAGTTATAAGTTTTAGAAGAAGCTCGGAGTCACCTAGTGCAG,11300 fluorescence intensity (a.u.)
10,GTACAAATTAGATTGGACCTATATATGAGGGAGCCAATGTCGGAGTCACCTAGTGCAG,45700 fluorescence intensity (a.u.)
11,CTTGATTGGGGTCTCCTTCCTTTTATTAAAAGAAAGCTGACGGAGTCACCTAGTGCAG,37000 fluorescence intensity (a.u.)
12,TGTAATCTTAAATTACTTGCGTAAACAAAAGGATTTAATTCGGAGTCACCTAGTGCAG,4640 fluorescence intensity (a.u.)
13,TAAATTAACTTAATCCAATTAGGAGCAGGTACATTGTGTGCGGAGTCACCTAGTGCAG,31200 fluorescence intensity (a.u.)
14,AATAATCACAAATGCCAATTGTTCATCACAGAATAAGAATCGGAGTCACCTAGTGCAG,3270 fluorescence intensity (a.u.)
15,TACTAACTAATTAATGTGATCCTGCCAGCAGTACACGTCCCGGAGTCACCTAGTGCAG,35300 fluorescence intensity (a.u.)
16,TCCACTGATTTAACGGAAAATCAATGCGACTCAAGAGTGTCGGAGTCACCTAGTGCAG,31300 fluorescence intensity (a.u.)
17,ATTGTACACAACAAATTGAAATTTTCAATTCAACTTTTAACGGAGTCACCTAGTGCAG,6860 fluorescence intensity (a.u.)
18,ATATATATATATATATATATATATATATATATAAAATCACCGGAGTCACCTAGTGCAG,5780 fluorescence intensity (a.u.)
19,CAAAATTTGACTCATAAGCTTTAAGCGAAAAGATGAGCCGCGGAGTCACCTAGTGCAG,4220 fluorescence intensity (a.u.)
20,GTCGATAAATTATTCGCGGCACAATTATTTGTGCCCCATTCGGAGTCACCTAGTGCAG,5580 fluorescence intensity (a.u.)
21,CTTTGACAAAACCTGGAGATTGTGGGACGTTAGCACTGGACGGAGTCACCTAGTGCAG,4290 fluorescence intensity (a.u.)
22,CAGGAAAGCCCATCAATTATATCCATTCTTTAAGCCCAATCGGAGTCACCTAGTGCAG,3370 fluorescence intensity (a.u.)
23,TAATAACTGAAATTGAACTCTATATTTAAACTTTAACTCTCGGAGTCACCTAGTGCAG,18400 fluorescence intensity (a.u.)
24,TTAAATTTTAAACAGTTTGATTTTAACTAAAGTTACGTGCCGGAGTCACCTAGTGCAG,29100 fluorescence intensity (a.u.)
25,ACAAACATGGTTTTGATTGATGTATCTCTTCTAGAGACCACGGAGTCACCTAGTGCAG,21600 fluorescence intensity (a.u.)
26,CTTTTATTTGATATTTGATTATACAGGTACAAGGCTGGTACGGAGTCACCTAGTGCAG,16900 fluorescence intensity (a.u.)
27,ACAATTAAAATCATGTTCGAATTGAGTTTCAATTTCACTTCGGAGTCACCTAGTGCAG,6040 fluorescence intensity (a.u.)
